Positions count from the first letter of the chain named.
B1: A395L1F9L5M2 (Fc fusion)
chain: HSQGTFTSDYSKYLDEEAAQDFVQWLLAGGPSSGAPPPSGGGGSGGGGSGGGGSA[letters of human IgG1 Fc with changes omitted]GGGGAGGGGAGGGGAHPIPDSSPLLQFGGQVRQRYLYTDDAQQTEAHLEIREDGTVGGAADQSPESLLQLKALKPGVIQILGVKTSRFLCQRPDGALYGSLHFDPEACSFRERLLEDGYNVYQSEAHGLPLHCPGNKSPHRDPAPRGPCRFLPLPGLPPALPEPPGILAPQPPDVGSSDPLSMVGGSQGRSPSYES
B2: A123L1F9L5M2 (Fc fusion)
chain: YSEGTFTSDYSKYLDEEAAQDFVQWLLDGGPSSGAPPPSGGGGSGGGGSGGGGSA[letters of human IgG1 Fc with changes omitted]GGGGAGGGGAGGGGAHPIPDSSPLLQFGGQVRQRYLYTDDAQQTEAHLEIREDGTVGGAADQSPESLLQLKALKPGVIQILGVKTSRFLCQRPDGALYGSLHFDPEACSFRERLLEDGYNVYQSEAHGLPLHCPGNKSPHRDPAPRGPCRFLPLPGLPPALPEPPGILAPQPPDVGSSDPLSMVGGSQGRSPSYES
B3: A137L1F9L5M2 (Fc fusion)
chain: YSEGTFTSDYSKYLDSQAAQDFVQWLLDGGPSSGAPPPSGGGGSGGGGSGGGGSA[letters of human IgG1 Fc with changes omitted]GGGGAGGGGAGGGGAHPIPDSSPLLQFGGQVRQRYLYTDDAQQTEAHLEIREDGTVGGAADQSPESLLQLKALKPGVIQILGVKTSRFLCQRPDGALYGSLHFDPEACSFRERLLEDGYNVYQSEAHGLPLHCPGNKSPHRDPAPRGPCRFLPLPGLPPALPEPPGILAPQPPDVGSSDPLSMVGGSQGRSPSYES
B4: A175L1F9L5M2 (Fc fusion)
chain: YSEGTFTSDYSKYLDSQAAQDFVQWLLAGGPSSGAPPPSGGGGSGGGGSGGGGSA[letters of human IgG1 Fc with changes omitted]GGGGAGGGGAGGGGAHPIPDSSPLLQFGGQVRQRYLYTDDAQQTEAHLEIREDGTVGGAADQSPESLLQLKALKPGVIQILGVKTSRFLCQRPDGALYGSLHFDPEACSFRERLLEDGYNVYQSEAHGLPLHCPGNKSPHRDPAPRGPCRFLPLPGLPPALPEPPGILAPQPPDVGSSDPLSMVGGSQGRSPSYES
B5: A232L1F9L5M2 (Fc fusion)
chain: HSQGTFTSDYSKYLDEQAAQDFVQWLLAGGPSSGAPPPSGGGGSGGGGSGGGGSA[letters of human IgG1 Fc with changes omitted]GGGGAGGGGAGGGGAHPIPDSSPLLQFGGQVRQRYLYTDDAQQTEAHLEIREDGTVGGAADQSPESLLQLKALKPGVIQILGVKTSRFLCQRPDGALYGSLHFDPEACSFRERLLEDGYNVYQSEAHGLPLHCPGNKSPHRDPAPRGPCRFLPLPGLPPALPEPPGILAPQPPDVGSSDPLSMVGGSQGRSPSYES
B6: A209L1F9L5M2 (Fc fusion)
chain: YSEGTFTSDYSKYLDEQAAQDFVQWLLAGGPSSGAPPPSGGGGSGGGGSGGGGSA[letters of human IgG1 Fc with changes omitted]GGGGAGGGGAGGGGAHPIPDSSPLLQFGGQVRQRYLYTDDAQQTEAHLEIREDGTVGGAADQSPESLLQLKALKPGVIQILGVKTSRFLCQRPDGALYGSLHFDPEACSFRERLLEDGYNVYQSEAHGLPLHCPGNKSPHRDPAPRGPCRFLPLPGLPPALPEPPGILAPQPPDVGSSDPLSMVGGSQGRSPSYES
B7: A187L1F9L5M2 (Fc fusion)
chain: YSEGTFTSDYSKYLDEQAAQDFVQWLLDGGPSSGAPPPSGGGGSGGGGSGGGGSA[letters of human IgG1 Fc with changes omitted]GGGGAGGGGAGGGGAHPIPDSSPLLQFGGQVRQRYLYTDDAQQTEAHLEIREDGTVGGAADQSPESLLQLKALKPGVIQILGVKTSRFLCQRPDGALYGSLHFDPEACSFRERLLEDGYNVYQSEAHGLPLHCPGNKSPHRDPAPRGPCRFLPLPGLPPALPEPPGILAPQPPDVGSSDPLSMVGGSQGRSPSYES
B8: A402L1F9L5M2 (Fc fusion)
chain: HSQGTFTSDYSKYLDEEAAQDFVQWLLDGGPSSGAPPPSGGGGSGGGGSGGGGSA[letters of human IgG1 Fc with changes omitted]GGGGAGGGGAGGGGAHPIPDSSPLLQFGGQVRQRYLYTDDAQQTEAHLEIREDGTVGGAADQSPESLLQLKALKPGVIQILGVKTSRFLCQRPDGALYGSLHFDPEACSFRERLLEDGYNVYQSEAHGLPLHCPGNKSPHRDPAPRGPCRFLPLPGLPPALPEPPGILAPQPPDVGSSDPLSMVGGSQGRSPSYES
B9: A089L1F9L5M2 (Fc fusion)
chain: YSEGTFTSDYSKYLDEEAAQDFVQWLLAGGPSSGAPPPSGGGGSGGGGSGGGGSA[letters of human IgG1 Fc with changes omitted]GGGGAGGGGAGGGGAHPIPDSSPLLQFGGQVRQRYLYTDDAQQTEAHLEIREDGTVGGAADQSPESLLQLKALKPGVIQILGVKTSRFLCQRPDGALYGSLHFDPEACSFRERLLEDGYNVYQSEAHGLPLHCPGNKSPHRDPAPRGPCRFLPLPGLPPALPEPPGILAPQPPDVGSSDPLSMVGGSQGRSPSYES
B10: A266L1F9L5M2 (Fc fusion)
chain: HSQGTFTSDYSKYLDEQAAQDFVQWLLDGGPSSGAPPPSGGGGSGGGGSGGGGSA[letters of human IgG1 Fc with changes omitted]GGGGAGGGGAGGGGAHPIPDSSPLLQFGGQVRQRYLYTDDAQQTEAHLEIREDGTVGGAADQSPESLLQLKALKPGVIQILGVKTSRFLCQRPDGALYGSLHFDPEACSFRERLLEDGYNVYQSEAHGLPLHCPGNKSPHRDPAPRGPCRFLPLPGLPPALPEPPGILAPQPPDVGSSDPLSMVGGSQGRSPSYES
B11: A352L1F6L5M2 (Fc fusion)
chain: HSQGTFTSDYSKYLDSQAAQDFVQWLLAGGPSSGAPPPSGGGGSGGGGSGGGGSA[letters of human IgG4 Fc with S228P N297A (EU numbers) omitted]GGGGAGGGGAGGGGAHPIPDSSPLLQFGGQVRQRYLYTDDAQQTEAHLEIREDGTVGGAADQSPESLLQLKALKPGVIQILGVKTSRFLCQRPDGALYGSLHFDPEACSFRERLLEDGYNVYQSEAHGLPLHCPGNKSPHRDPAPRGPCRFLPLPGLPPALPEPPGILAPQPPDVGSSDPLSMVGGSQGRSPSYES
B12: A137L1F6L5M2 (Fc fusion)
chain: B11 chain with H1Y, Q3E, A28D
B13: A382L1F6L5M2 (Fc fusion)
chain: B11 chain with A28D
B14: A175L1F6L5M2 (Fc fusion)
chain: B11 chain with H1Y, Q3E
B15: A382L1F7L5M2 (Fc fusion)
chain: HSQGTFTSDYSKYLDSQAAQDFVQWLLDGGPSSGAPPPSGGGGSGGGGSGGGGSA[letters of human IgG4 Fc with S228P F234A L235A (EU numbers) omitted]GGGGAGGGGAGGGGAHPIPDSSPLLQFGGQVRQRYLYTDDAQQTEAHLEIREDGTVGGAADQSPESLLQLKALKPGVIQILGVKTSRFLCQRPDGALYGSLHFDPEACSFRERLLEDGYNVYQSEAHGLPLHCPGNKSPHRDPAPRGPCRFLPLPGLPPALPEPPGILAPQPPDVGSSDPLSMVGGSQGRSPSYES
B16: A137L1F7L5M2 (Fc fusion)
chain: B15 chain with H1Y, Q3E
B17: A073L1F6 (Fc fusion)
chain: YSEGTFTSDYSKYLDSQAAQDFVQWLMDGGPSSGAPPPSGGGGSGGGGSGGGGSA[letters of human IgG4 Fc with S228P N297A (EU numbers) omitted]
B18: A187L1F6 (Fc fusion)
chain: B17 chain with S16E, M27L
B19: A271L1F6 (Fc fusion)
chain: B17 chain with Y1H, E3Q, D28A
B20: A135L1F6 (Fc fusion)
chain: B17 chain with D28A
B21: A462L1F6 (Fc fusion)
chain: B17 chain with Y1H, E3Q, A18R, G29T
B22: A175L1F6 (Fc fusion)
chain: B17 chain with M27L, D28A
B23: A266L1F6 (Fc fusion)
chain: B17 chain with Y1H, E3Q, S16E, M27L
B24: A017L1F6 (Fc fusion)
chain: B17 chain with Y1H, E3Q, Q17R, A18R, M27L, D28A
B25: A021L1F6 (Fc fusion)
chain: B17 chain with Y1H, E3Q, Q17R, A18R, M27L
B26: A227L1F6 (Fc fusion)
chain: B17 chain with Y1H, E3Q, S16E, D28A
B27: A499L1F6 (Fc fusion)
chain: B17 chain with Y1H, E3Q, S16G, M27L
B28: A215L1F6 (Fc fusion)
chain: B17 chain with Y1H, E3Q, S16E
B29: A307L1F6 (Fc fusion)
chain: B17 chain with Y1H, E3Q
B30: A137L1F6 (Fc fusion)
chain: B17 chain with M27L
B31: A504L1F6 (Fc fusion)
chain: B17 chain with Y1H, E3Q, Q17E, M27L, D28A
B32: A089L1F6 (Fc fusion)
chain: B17 chain with S16E, Q17E, M27L, D28A
B33: A451L1F6 (Fc fusion)
chain: B17 chain with Y1H, E3Q, S16E, Q17E, A18R, D28A, G29T
B34: A123L1F6 (Fc fusion)
chain: B17 chain with S16E, Q17E, M27L
B35: A209L1F6 (Fc fusion)
chain: B17 chain with S16E, M27L, D28A
B36: A512L1F6 (Fc fusion)
chain: B17 chain with Y1H, E3Q, S16G, Q17E, M27L

biological target: T1, human GLP-1R (human, UniProt P43220); experiment: cell-based or functional assay

Row | Binder | GLP-1 R agonist activity (EC50, nM) [nM]
1 | B1 | 1.31
2 | B2 | 51.3
3 | B3 | 47.3
4 | B4 | 42.3
5 | B5 | 1.42
6 | B6 | 51.4
7 | B7 | 40.2
8 | B8 | 1.21
9 | B9 | 45.7
10 | B10 | 1.28
11 | B11 | 1.67
12 | B12 | 51.9
13 | B13 | 1.21
14 | B14 | 48.9
15 | B15 | 1.18
16 | B16 | 37.5

biological target: GCGR; experiment: cell-based or functional assay

Row | Binder | GCGR agonist activity (EC50, nM) [nM]
17 | B1 | 1.34
18 | B2 | 41.2
19 | B3 | 38.1
20 | B4 | 52.2
21 | B5 | 1.17
22 | B6 | 56.1
23 | B7 | 36.4
24 | B8 | 1.25
25 | B9 | 37.5
26 | B10 | 1.37
27 | B11 | 1.46
28 | B12 | 37.7
29 | B13 | 1.34
30 | B14 | 46.3
31 | B15 | 1.35
32 | B16 | 41.4

biological target: β-klotho (KLB); experiment: cell-based or functional assay

Row | Binder | FGF21 activity (EC50, nM) [nM]
33 | B1 | 1.36
34 | B2 | 0.74
35 | B3 | 0.82
36 | B4 | 0.71
37 | B5 | 0.85
38 | B6 | 1.67
39 | B7 | 0.84
40 | B8 | 0.89
41 | B9 | 0.87
42 | B10 | 0.93
43 | B11 | 0.85
44 | B12 | 0.79
45 | B13 | 1.54
46 | B14 | 0.73
47 | B15 | 0.81
48 | B16 | 0.71

biological target: T1, human GLP-1R; experiment: cell-based or functional assay; remark: another data set of the same source

Row | Binder | GLP-1 R agonist activity (EC50, nM) [nM]
49 | B17 | 50.6
50 | B18 | 42.1
51 | B19 | 1.34
52 | B20 | 53.5
53 | B21 | 20.1
54 | B22 | 41.7
55 | B23 | 1.75
56 | B24 | 19.9
57 | B25 | 17.7
58 | B26 | 1.48
59 | B27 | 30.5
60 | B28 | 1.94
61 | B29 | 1.95
62 | B30 | 63.5
63 | B31 | 21.8
64 | B32 | 43.7
65 | B33 | 13
66 | B34 | 45.6
67 | B35 | 53.9
68 | B36 | 22.8

biological target: GCGR; experiment: cell-based or functional assay; remark: another data set of the same source

Row | Binder | GCGR agonist activity (EC50, nM) [nM]
69 | B17 | 43.2
70 | B18 | 42.3
71 | B19 | 1.39
72 | B20 | 51.9
73 | B21 | 11.4
74 | B22 | 52.2
75 | B23 | 1.33
76 | B24 | 17.1
77 | B25 | 17.8
78 | B26 | 1.5
79 | B27 | 12.3
80 | B28 | 1.34
81 | B29 | 1.62
82 | B30 | 43.9
83 | B31 | 10.6
84 | B32 | 33.5
85 | B33 | 11.4
86 | B34 | 37.4
87 | B35 | 63.3
88 | B36 | 12.2
